According to the BET-seq Pho4 binding data (Le et al. 2018):
The list shows a part of the results. Values were computed here from the reads of four pooled replicates and scatter widely.

Target: T1, Pho4 (S. cerevisiae) (UniProt P07270)
T1 sequence: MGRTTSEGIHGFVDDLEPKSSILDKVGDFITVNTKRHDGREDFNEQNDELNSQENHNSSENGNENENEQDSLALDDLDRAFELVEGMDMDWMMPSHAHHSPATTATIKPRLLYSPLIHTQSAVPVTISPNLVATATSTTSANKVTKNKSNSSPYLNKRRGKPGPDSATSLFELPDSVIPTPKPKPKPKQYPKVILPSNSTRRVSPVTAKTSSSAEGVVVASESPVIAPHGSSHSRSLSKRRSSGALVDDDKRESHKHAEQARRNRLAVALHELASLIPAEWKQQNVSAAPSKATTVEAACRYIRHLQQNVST
Assay: relative binding free energy (BET-seq); higher = weaker binding
Conditions: reference: library average

With ATTTGCACGTGGATGG as the sequence, how does the “relative binding free energy” value read?
The value was 0.04 kcal/mol.

Which “relative binding free energy” value does the source give for GATGTCACGTGGTTAC here?
The value was 0.21 kcal/mol.

Which “relative binding free energy” value does the source give for GTATGCACGTGACTTG here?
The value was 0.06 kcal/mol.

For GTGTACACGTGGCTGG, which “relative binding free energy” value is on record?
The value was -0.03 kcal/mol.

Which “relative binding free energy” value does the source give for GCGATCACGTGGGATG here?
Its value is 0.13 kcal/mol.

For AGTGGCACGTGATTGT, which “relative binding free energy” value is on record?
Its value is 0.02 kcal/mol.

For TCAGTCACGTGAGTGT, which “relative binding free energy” value is on record?
Its value is 0.29 kcal/mol.

For CGGGTCACGTGCGAGG, which “relative binding free energy” value is on record?
The value was 0 kcal/mol.

Which “relative binding free energy” value does the source give for ATGATCACGTGATTAT here?
Its value is 0.43 kcal/mol.

Which “relative binding free energy” value does the source give for TCGTGCACGTGGTAGC here?
Its value is -0.09 kcal/mol.

Which “relative binding free energy” value does the source give for GGGTTCACGTGTGCAA here?
The value was 0.26 kcal/mol.

How did the “relative binding free energy” value turn out when GGAGTCACGTGTGTTA was run?
Its value is 0.23 kcal/mol.

TTACTCACGTGTAGAG was tested. Which “relative binding free energy” value did it give?
The value was 0.26 kcal/mol.

Which “relative binding free energy” value does the source give for ATTGGCACGTGAGGAA here?
Its value is 0.01 kcal/mol.

How did the “relative binding free energy” value turn out when GTTGGCACGTGTTCAA was run?
Its value is 0.02 kcal/mol.

With AAAGGCACGTGATGGA as the sequence, how does the “relative binding free energy” value read?
Its value is 0.09 kcal/mol.

Which “relative binding free energy” value does the source give for TGAAGCACGTGTAGGG here?
The value was -0.08 kcal/mol.

TTCTACACGTGGGGGT was tested. Which “relative binding free energy” value did it give?
Its value is 0.03 kcal/mol.

Which “relative binding free energy” value does the source give for CGGCTCACGTGGGTGG here?
Its value is 0.04 kcal/mol.

Which “relative binding free energy” value does the source give for TATTTCACGTGGGAGG here?
Its value is 0.18 kcal/mol.

For TCGTTCACGTGTTTAA, which “relative binding free energy” value is on record?
Its value is 0.27 kcal/mol.

Which “relative binding free energy” value does the source give for TATATCACGTGTCTGA here?
Its value is 0.13 kcal/mol.

With GGCGGCACGTGTTGTA as the sequence, how does the “relative binding free energy” value read?
Its value is -0.02 kcal/mol.

With AGTCACACGTGGTGGA as the sequence, how does the “relative binding free energy” value read?
Its value is -0.1 kcal/mol.

For ATTCGCACGTGGCGGT, which “relative binding free energy” value is on record?
Its value is -0.18 kcal/mol.

How did the “relative binding free energy” value turn out when GGGATCACGTGTTGCT was run?
The value was 0.19 kcal/mol.

For TTTGTCACGTGAGGTA, which “relative binding free energy” value is on record?
Its value is 0.31 kcal/mol.

How did the “relative binding free energy” value turn out when AGGCGCACGTGTTGGC was run?
The value was -0.15 kcal/mol.

How did the “relative binding free energy” value turn out when GGGATCACGTGAGATG was run?
Its value is 0.22 kcal/mol.

Which “relative binding free energy” value does the source give for ATAGGCACGTGAGAAG here?
Its value is 0.03 kcal/mol.

With CTCAGCACGTGTAGGG as the sequence, how does the “relative binding free energy” value read?
The value was 0 kcal/mol.

Which “relative binding free energy” value does the source give for AGTCTCACGTGAGAGG here?
The value was 0.33 kcal/mol.

For AAGTTCACGTGTTCGG, which “relative binding free energy” value is on record?
Its value is 0.16 kcal/mol.

With AGGCGCACGTGATGGT as the sequence, how does the “relative binding free energy” value read?
Its value is 0.05 kcal/mol.

Which “relative binding free energy” value does the source give for GATTGCACGTGCTGGT here?
The value was 0.08 kcal/mol.

How did the “relative binding free energy” value turn out when TATTGCACGTGAGTCT was run?
Its value is 0.13 kcal/mol.

With GATGGCACGTGAATTT as the sequence, how does the “relative binding free energy” value read?
The value was 0.34 kcal/mol.

With CTATTCACGTGTGGTG as the sequence, how does the “relative binding free energy” value read?
The value was 0.29 kcal/mol.

With CTCTTCACGTGGTTTT as the sequence, how does the “relative binding free energy” value read?
The value was 0.22 kcal/mol.

Which “relative binding free energy” value does the source give for TGTATCACGTGATGGG here?
Its value is 0.27 kcal/mol.

For CGCTTCACGTGAGGGT, which “relative binding free energy” value is on record?
The value was 0.33 kcal/mol.

For GAGGGCACGTGAGCGG, which “relative binding free energy” value is on record?
Its value is 0.15 kcal/mol.

GGGTTCACGTGAGGGG was tested. Which “relative binding free energy” value did it give?
The value was 0.4 kcal/mol.

For TGGTACACGTGATTGC, which “relative binding free energy” value is on record?
The value was 0.13 kcal/mol.

How did the “relative binding free energy” value turn out when ACGGACACGTGGGGGG was run?
The value was -0.09 kcal/mol.

How did the “relative binding free energy” value turn out when GTCTACACGTGTTGGT was run?
Its value is 0.13 kcal/mol.

Which “relative binding free energy” value does the source give for TGGTGCACGTGCGAAG here?
The value was -0.08 kcal/mol.

With GATGACACGTGGGTCT as the sequence, how does the “relative binding free energy” value read?
Its value is 0.09 kcal/mol.

For GTGTGCACGTGGCTCT, which “relative binding free energy” value is on record?
Its value is -0.11 kcal/mol.

For TGGGTCACGTGTAATG, which “relative binding free energy” value is on record?
The value was 0.22 kcal/mol.

Which “relative binding free energy” value does the source give for CAAGACACGTGGGTTT here?
The value was -0.13 kcal/mol.

GTGAACACGTGTAAGT was tested. Which “relative binding free energy” value did it give?
The value was 0.04 kcal/mol.

With TGTTACACGTGTGGCG as the sequence, how does the “relative binding free energy” value read?
The value was 0.09 kcal/mol.

AGTGTCACGTGGAGAA was tested. Which “relative binding free energy” value did it give?
Its value is 0.03 kcal/mol.

GCTGGCACGTGTGTGT was tested. Which “relative binding free energy” value did it give?
Its value is -0.02 kcal/mol.

With CCGTTCACGTGATGGT as the sequence, how does the “relative binding free energy” value read?
Its value is 0.51 kcal/mol.

Which “relative binding free energy” value does the source give for TTGGACACGTGCGGCG here?
Its value is -0.11 kcal/mol.

With TCCTGCACGTGTTGTA as the sequence, how does the “relative binding free energy” value read?
Its value is 0.04 kcal/mol.

How did the “relative binding free energy” value turn out when GATTACACGTGCTTGG was run?
The value was 0.11 kcal/mol.

TGAGACACGTGAGCTT was tested. Which “relative binding free energy” value did it give?
The value was 0.31 kcal/mol.

Which “relative binding free energy” value does the source give for GTTCGCACGTGTTTGG here?
The value was 0.03 kcal/mol.

For ATGTGCACGTGTGAAA, which “relative binding free energy” value is on record?
The value was -0.02 kcal/mol.

For ATTGGCACGTGATTAA, which “relative binding free energy” value is on record?
The value was 0.01 kcal/mol.

Which “relative binding free energy” value does the source give for GGTTCCACGTGAGTGT here?
Its value is 0.16 kcal/mol.

How did the “relative binding free energy” value turn out when TATGGCACGTGCAGGG was run?
Its value is -0.12 kcal/mol.

For GTGGGCACGTGACTAT, which “relative binding free energy” value is on record?
The value was 0.12 kcal/mol.

Which “relative binding free energy” value does the source give for ATTTTCACGTGCTAGG here?
Its value is 0.22 kcal/mol.

With TGGGTCACGTGGCGTT as the sequence, how does the “relative binding free energy” value read?
Its value is 0 kcal/mol.

How did the “relative binding free energy” value turn out when TGGGGCACGTGACGCG was run?
The value was -0.12 kcal/mol.

How did the “relative binding free energy” value turn out when ACTGGCACGTGTAGGG was run?
The value was -0.07 kcal/mol.

For GATTACACGTGGGGTA, which “relative binding free energy” value is on record?
The value was -0.16 kcal/mol.

Which “relative binding free energy” value does the source give for GGTGTCACGTGTAGTC here?
Its value is 0.17 kcal/mol.

With TGTTGCACGTGAATAG as the sequence, how does the “relative binding free energy” value read?
The value was 0.16 kcal/mol.

How did the “relative binding free energy” value turn out when GGTCGCACGTGTCAGT was run?
The value was 0.03 kcal/mol.

TTGGGCACGTGTAGTT was tested. Which “relative binding free energy” value did it give?
Its value is -0.03 kcal/mol.

For GGGTGCACGTGTTGCT, which “relative binding free energy” value is on record?
The value was 0.01 kcal/mol.

How did the “relative binding free energy” value turn out when CTAATCACGTGAGTGT was run?
The value was 0.23 kcal/mol.

With AGGGTCACGTGCGAGA as the sequence, how does the “relative binding free energy” value read?
The value was 0.05 kcal/mol.

For TGGGCCACGTGTGCTG, which “relative binding free energy” value is on record?
Its value is -0.14 kcal/mol.

With ATGCGCACGTGGGTGG as the sequence, how does the “relative binding free energy” value read?
Its value is -0.29 kcal/mol.

How did the “relative binding free energy” value turn out when TAGAGCACGTGGTACG was run?
Its value is -0.2 kcal/mol.

For AGTTTCACGTGCTGAT, which “relative binding free energy” value is on record?
The value was 0.3 kcal/mol.

How did the “relative binding free energy” value turn out when CGGTTCACGTGATTGA was run?
The value was 0.26 kcal/mol.

With TGTGGCACGTGGTGGA as the sequence, how does the “relative binding free energy” value read?
The value was -0.09 kcal/mol.

With TTGAACACGTGTGCTT as the sequence, how does the “relative binding free energy” value read?
The value was 0.07 kcal/mol.

Which “relative binding free energy” value does the source give for TGATTCACGTGCTTAG here?
The value was 0.32 kcal/mol.

How did the “relative binding free energy” value turn out when TGACGCACGTGTGGTA was run?
Its value is -0.1 kcal/mol.

TGAGGCACGTGGGACA was tested. Which “relative binding free energy” value did it give?
The value was -0.29 kcal/mol.

For CTTCGCACGTGGAGGG, which “relative binding free energy” value is on record?
Its value is -0.02 kcal/mol.

Which “relative binding free energy” value does the source give for TTTTGCACGTGGGTCC here?
The value was -0.06 kcal/mol.

Which “relative binding free energy” value does the source give for GTGGCCACGTGGACGG here?
Its value is 0.08 kcal/mol.

With GGCCGCACGTGGAGGG as the sequence, how does the “relative binding free energy” value read?
Its value is 0.02 kcal/mol.

For ACGTGCACGTGTGGTT, which “relative binding free energy” value is on record?
Its value is -0.24 kcal/mol.

For TTTAACACGTGTTCGT, which “relative binding free energy” value is on record?
The value was -0.13 kcal/mol.

GCGTGCACGTGTTAAG was tested. Which “relative binding free energy” value did it give?
The value was 0.1 kcal/mol.

How did the “relative binding free energy” value turn out when ATGTGCACGTGGTGGC was run?
The value was -0.13 kcal/mol.

Which “relative binding free energy” value does the source give for AGAGACACGTGGCGGG here?
The value was -0.08 kcal/mol.

How did the “relative binding free energy” value turn out when ATGGGCACGTGCTTGA was run?
Its value is -0.11 kcal/mol.

TTGAGCACGTGTTGTA was tested. Which “relative binding free energy” value did it give?
The value was -0.19 kcal/mol.

Which “relative binding free energy” value does the source give for ATTGTCACGTGAGTGC here?
Its value is 0.21 kcal/mol.

How did the “relative binding free energy” value turn out when TATGGCACGTGCATTT was run?
The value was -0.11 kcal/mol.

For ATGAGCACGTGTAAGG, which “relative binding free energy” value is on record?
The value was 0.01 kcal/mol.

CTGGTCACGTGATCGG was tested. Which “relative binding free energy” value did it give?
Its value is 0.26 kcal/mol.

With ATTAACACGTGGATTG as the sequence, how does the “relative binding free energy” value read?
Its value is -0.09 kcal/mol.

Which “relative binding free energy” value does the source give for CGGGCCACGTGGTAGT here?
Its value is -0.09 kcal/mol.

For GGACGCACGTGTGTGC, which “relative binding free energy” value is on record?
Its value is 0.1 kcal/mol.

How did the “relative binding free energy” value turn out when GTTCGCACGTGGTGCG was run?
The value was -0.07 kcal/mol.

GTGGTCACGTGTGCGC was tested. Which “relative binding free energy” value did it give?
Its value is 0.13 kcal/mol.

For TAAGTCACGTGTATGG, which “relative binding free energy” value is on record?
Its value is 0.02 kcal/mol.

Which “relative binding free energy” value does the source give for CTATTCACGTGGGTTT here?
The value was 0.29 kcal/mol.

With CATGGCACGTGTATAG as the sequence, how does the “relative binding free energy” value read?
The value was -0.02 kcal/mol.

How did the “relative binding free energy” value turn out when GCGTTCACGTGTTAGG was run?
Its value is 0.17 kcal/mol.

How did the “relative binding free energy” value turn out when TGTATCACGTGGTCTG was run?
The value was 0.01 kcal/mol.

Which “relative binding free energy” value does the source give for GACGGCACGTGTAGTG here?
Its value is -0.01 kcal/mol.

Which “relative binding free energy” value does the source give for TACGGCACGTGGTTGC here?
The value was -0.07 kcal/mol.
